# Among all 280,000 compounds or so, about 1,100 (0.39%) were called active. The shares of active, inactive and inconclusive entries below differ from those in the screen. The call rests on the fitted dose curve; in most records, active means well fitted inhibition curve with a large enough effect; inconclusive means small, poorly fitted or top-dose-only effect, or effect the other way; inactive means flat fitted curve, though single readings scatter. No potency is given beside an inconclusive call; the fits are too rough.
# Target: Microtubule-associated protein tau (Homo sapiens) (UniProt P10636)
# Sequence of UniProt P10636 (P10636 whole entry, looked up): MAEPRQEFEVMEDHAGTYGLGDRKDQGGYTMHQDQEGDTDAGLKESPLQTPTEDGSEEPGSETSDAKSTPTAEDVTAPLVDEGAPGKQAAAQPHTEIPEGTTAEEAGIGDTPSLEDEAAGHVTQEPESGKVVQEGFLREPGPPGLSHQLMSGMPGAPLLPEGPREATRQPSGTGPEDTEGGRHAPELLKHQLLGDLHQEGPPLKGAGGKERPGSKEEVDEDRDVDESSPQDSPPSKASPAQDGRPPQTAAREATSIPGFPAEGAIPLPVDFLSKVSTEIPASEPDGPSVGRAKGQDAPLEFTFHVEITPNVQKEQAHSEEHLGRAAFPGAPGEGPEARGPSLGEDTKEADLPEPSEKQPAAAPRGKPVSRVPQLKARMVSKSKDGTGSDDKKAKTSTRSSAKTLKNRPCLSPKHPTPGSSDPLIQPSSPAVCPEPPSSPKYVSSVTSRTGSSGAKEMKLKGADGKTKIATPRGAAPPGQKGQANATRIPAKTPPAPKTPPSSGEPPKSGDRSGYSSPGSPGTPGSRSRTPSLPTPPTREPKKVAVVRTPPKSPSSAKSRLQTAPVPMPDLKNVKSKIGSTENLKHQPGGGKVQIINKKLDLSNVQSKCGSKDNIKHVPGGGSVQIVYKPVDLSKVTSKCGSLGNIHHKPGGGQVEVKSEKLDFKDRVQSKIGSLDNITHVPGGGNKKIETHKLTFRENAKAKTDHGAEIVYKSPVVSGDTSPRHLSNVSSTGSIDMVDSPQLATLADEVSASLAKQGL
# Test: qHTS for Inhibitors of Tau Fibril Formation, Fluorescence Polarization; further: nearly all actives have a fitted effect of over 55% in size
# Conditions: K18 P301L tau heparin fibrillization, Alexa594 FP, 6 h; series mostly up to 57.7 µM
# Summary of the method: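 Recombinant K18 P301L […], labeled with Alexa 594 at 0.24 uM over 15 uM unlabeled; heparin inducer 20 uM final; 37 C, 6 hr; FP endpoint.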
# Potency means the concentration at half of the fitted maximal effect; tags describe the fitted curve by direction and shape.
row,Structure (SMILES),Potency
1,N#CC1=C(S)N(c2ccc(F)cc2)C(c2ccco2)NC1=O (configuration not stated),"inconclusive [inhibitor, partial curve, poor fit]"
2,COc1cc2[nH]c(=O)n(Cc3ccc(C(=O)NCc4ccccc4)cc3)c(=O)c2cc1OC,"inconclusive [inhibitor, single point]"
3,Cc1ccc(CC(=O)Nc2nc3ccccc3s2)cc1,"inconclusive [inhibitor, single point]"
4,COc1cccc(CN2C(=O)CCC2(C)C(=O)NC2CCCCC2)c1 (configuration not stated),"inconclusive [inhibitor, full curve, poor fit]"
5,CCCCNC(=S)NC(=O)c1ccc([N+](=O)[O-])cc1,inactive
6,COc1cccc(OC)c1C(=O)NC(=S)Nc1cc(-c2nc3ccccc3[nH]2)ccc1Cl,"inconclusive [inhibitor, single point]"
7,O=C(CCCN1C(=O)c2ccccc2C1=O)Nc1nccs1,inactive
8,Cc1ccc(NC(=O)CCN2C(=O)c3cccc4cccc(c34)C2=O)cc1,"inconclusive [inhibitor, single point]"
9,Cc1cc(=O)c2c(C)ccc(C)c2[nH]1,inactive
10,COc1cccc(NC(=O)c2oc3ccccc3c2NC(=O)c2ccc(C(F)(F)F)cc2)c1,"inconclusive [inhibitor, partial curve, poor fit]"
11,COc1ccc(/C=N/NC(=O)c2cc(-c3ccc4c(c3)OCO4)n[nH]2)cc1OC,"inconclusive [inhibitor, partial curve, poor fit]"
12,O=c1c2cccnc2n(Cc2ccccc2F)c(=O)n1Cc1ccccc1Cl,"inconclusive [inhibitor, partial curve]"
13,Cc1ccc(C)c(N2CCN(C(=O)CN3CCSc4ccc(S(=O)(=O)N(C)C)cc43)CC2)c1,"inconclusive [activator, partial curve]"
14,Cc1cc(NC(=O)CSc2ncnc3ccccc23)no1,inactive
15,O=C(CN1C(=O)/C(=C/c2ccccc2)SC1=S)Nc1ncc(Cc2ccccc2)s1,"inconclusive [inhibitor, partial curve, poor fit]"
16,Cc1cc(S(=O)(=O)Nc2ccc3c(c2)COC3=O)ccc1F,inactive
17,COc1cccc(NC(=O)/C(C#N)=C\c2cn(Cc3ccc(C)cc3)c3ccccc23)c1,"inconclusive [inhibitor, partial curve]"
18,O=[N+]([O-])c1ccc(/C([O-])=C(/C(=S)NCc2ccco2)[n+]2ccccc2)cc1,"inconclusive [inhibitor, single point]"
19,COC(=O)[C@@H]1C[C@@]2(O)[C@H](O)[C@H](O)[C@H](O)C[C@H]2N1Cc1ccc(N2CCN(C)CC2)cc1,"inconclusive [inhibitor, single point]"
20,O=C(CSc1nc(-c2ccco2)cc(C(F)(F)F)n1)N1CCN(c2ccc(Cl)cc2)CC1,inactive
21,CC1=C2C(O)C(=O)OC3CC4C(C)(C)C(=O)C=C[C@]4(C)C(CC1)[C@@]23C (some centres not stated),"inconclusive [inhibitor, single point]"
22,Cc1ccccc1-c1noc(-c2ccccc2C(=O)NCc2ccco2)n1,inactive
23,CCOC(=O)C1=C[C@]2(CC)CCCN3CCc4c(n1c1ccccc41)[C@@H]32,"inconclusive [inhibitor, single point]"

row,Structure (SMILES),Potency
1,Cc1[nH]n(-c2ncc(-c3ccccc3)s2)c(=O)c1C(c1ccc(Br)cc1)C(C#N)C#N (configuration not stated),active: 35.5 µM
2,COc1ccc2c(c1)C(C)=CC(C)(C)N2C(=O)Nc1ccccc1,"inconclusive [inhibitor, partial curve]"
3,Cc1cc([N+](=O)[O-])c(C)cc1-c1ccc(/C=N/NC(=O)c2cccnc2)o1,"inconclusive [inhibitor, partial curve]"
4,CC1=C(C#N)c2nc(N)c(C#N)c(C)c2/C1=C\c1ccc(C)cc1,"inconclusive [inhibitor, partial curve]"
5,Nc1ccc(N2CCCCC2)c(S(=O)(=O)Nc2ccc(Cl)cc2)c1,"inconclusive [activator, partial curve]"
6,CC1=C(C(=O)Nc2ccc(C)cc2C)C(c2ccc(Br)cc2)n2ncc(C(=O)Nc3cccc(C)c3)c2N1 (configuration not stated),"inconclusive [inhibitor, single point]"
7,Cc1nc(N2CCOCC2)c2nc(-c3ccccc3)n(C(C)CN(C)C)c2n1 (configuration not stated),inactive
8,O=C(CSc1ccc2nnc(-c3ccccn3)n2n1)NCc1ccco1,"inconclusive [inhibitor, single point]"
9,CCOc1c(O)ccc(/C=C2\SC(=S)NC2=O)c1[N+](=O)[O-],"inconclusive [inhibitor, partial curve]"
10,CCOc1ccc2nc(NS(C)(=O)=O)sc2c1,inactive
11,O=C(NP(=O)(N1CCOCC1)N1CCOCC1)C1=C(N2CCOCC2)/C(=C\c2ccccc2)CC1,inactive
12,Cc1ccc(F)cc1NCC(=O)Nc1ccc(Cl)cc1F,"inconclusive [activator, single point]"
13,COc1ccccc1CNC(=O)CSc1ccccc1,inactive
14,COc1ccc(CC(=O)Nc2ccc(-c3noc(-c4cccc(OC)c4)n3)cc2)cc1,"inconclusive [inhibitor, partial curve]"
15,COc1ccccc1CNc1nc2c(S(=O)(=O)c3ccccc3)nnn2c2ccc(Cl)cc12,"inconclusive [inhibitor, partial curve]"
16,O=C(CCSCc1ccc(Cl)cc1)NCc1ccc(F)cc1Cl,"inconclusive [inhibitor, full curve, poor fit]"
17,CCOC(=O)N/N=C/c1cn(CCCOc2ccc(C)cc2)c2ccccc12,inactive
18,c1coc(C2Nc3cccc4cccc(c34)N2)c1,"inconclusive [inhibitor, partial curve]"
19,Cc1ccc2nc(Cl)c3cc(C(=O)NCCCN(C)Cc4ccccc4)sc3c2c1,"inconclusive [activator, single point]"
20,CC(=O)c1cccc(NC(=O)Cn2nc(C(F)(F)F)c3c2CCC3)c1,"inconclusive [inhibitor, full curve]"
21,Cc1cc2oc(=O)cc(CN3CCN(S(=O)(=O)c4ccc5c(c4)OCCO5)CC3)c2cc1C,"inconclusive [inhibitor, full curve, poor fit]"
22,CNc1cccccc1=S,"inconclusive [inhibitor, partial curve, poor fit]"
23,CCCCc1c(O)nc2ccccn2c1=O,"inconclusive [inhibitor, single point]"

row,Structure (SMILES),Potency
1,Cc1nn(C(=O)c2cccc(F)c2)c(C)c1S(=O)(=O)N1CCOCC1,"inconclusive [activator, single point]"
2,Cn1nc(-c2ccc(C(=O)N3CCN(Cc4ccccc4)CC3)cc2)c2ccccc2c1=O,inactive
3,COc1ccc(N2CCN(C(=O)c3cc4c(-c5ccc(Cl)cc5)nn(C)c4s3)CC2)cc1,"inconclusive [activator, full curve, poor fit]"
4,CC(=O)c1sc(N/N=C\c2ccccc2O)nc1C,inactive
5,CCOc1cc(/C=N/O)ccc1OCc1ccc([N+](=O)[O-])cc1,inactive
6,Clc1ccc(-c2nnc(SCc3nc4ccccc4[nH]3)o2)c(Cl)c1,"inconclusive [inhibitor, single point]"
7,Cc1ccc(-c2cc(C(=O)Nc3ccccc3C)c3ccccc3n2)o1,inactive
8,Cc1ccc(-n2ncc3c(NC4CCCCC4)ncnc32)cc1Cl,"inconclusive [inhibitor, single point]"
9,O=C(OC(C(=O)Nc1cc(Cl)cc(Cl)c1)c1ccccc1)C1=COCCO1 (configuration not stated),"inconclusive [inhibitor, partial curve]"
10,CCc1ccc(NC(=O)C(C)OC(=O)c2ccc(NS(=O)(=O)c3ccc(C)c([N+](=O)[O-])c3)cc2)cc1 (configuration not stated),"inconclusive [inhibitor, single point]"
11,COc1ccc(/C=N/NC(=O)c2[nH]nc3c2CCc2ccccc2-3)cc1OC,"inconclusive [inhibitor, partial curve]"
12,O=C(Nc1ccc(N2CCOCC2)cc1)Nc1ccc(Cl)c(Cl)c1,"inconclusive [inhibitor, single point]"
13,CCN(CC)C(=O)CCc1nnc(Cc2cccc(C(F)(F)F)c2)o1,"inconclusive [inhibitor, single point]"
14,CCOC(=O)C1CCCN(C(=O)Cn2sc3nc(C)cc(C)c3c2=O)C1 (configuration not stated),active: 25.1 µM
15,CCN(c1ccccc1)c1nnc(NC(=O)Nc2ccc(Br)c(C)c2)s1,inactive
16,O=C(Cn1c(=O)n2nc(-c3cccc(F)c3)nc2c2ccccc21)N1CCN(c2ccc(F)cc2)CC1,"inconclusive [inhibitor, partial curve]"
17,Cc1cc(C)nc(/N=C2\NC(=O)CC(C(=O)O)N2c2cccc(Cl)c2)n1 (configuration not stated),inactive
18,CCN1CCN(C(c2ccccc2Cl)c2c(O)cc(C)n(Cc3ccco3)c2=O)CC1 (configuration not stated),"inconclusive [inhibitor, partial curve]"
19,COc1ccc(/C=C/C(=O)Nc2cc(C)nn2-c2nc3ccccc3[nH]2)cc1,"inconclusive [inhibitor, full curve]"
20,Cn1c(=O)cc(Cl)[nH]c1=O,inactive
21,Cc1ccc(NS(=O)(=O)c2ccc(NC(=O)c3cccs3)cc2)cc1,"inconclusive [inhibitor, partial curve, poor fit]"
